According to the supplement of paper PMC11417369:
± gives the standard deviation of the averaged measurements. The list shows a part of the results.

system: PfAP2-I AP2 domain 3 (GST-tagged); assay: gcPBM binding intensity (ln(normalized median fluorescence intensity)); higher = stronger DNA binding
Summary of the method: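 Binding intensity is the highest Masliner-normalised natural-log median intensity over replicate spots in either probe orientation. To obtain it, GST-tagged P. falciparum DNA-binding domains made in E. coli were incubated for 1 h on an Agilent 4 × 180k array of primer-extended double-stranded 36-bp intergenic genomic probes plus negative controls. Detection used Alexa488 anti-GST antibody with scanning at 488 nm.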

Row | Sequence | gcPBM binding intensity (ln)
1 | TTTATTATATTTTTTTGTACATATTGATGTATATAA [XGTACX_site6527] | 7.77 ± 0.69
2 | AGCAAAATGAAATAAATTGGAAAATATTACTGAACG [CACACA_negctrl_site1433] | 7.58 ± 0.69
3 | TTTCTTTTCTTCTCTATTTTTTTTTCACGGCATTAT [TGCATGCA_negctrl_site484] | 7.61 ± 0.59
4 | ACATTAAAAAATTGTTTGCACTATATAAAATATTAA [GTGCAC_site9728] | 9.86 ± 0.28
5 | AATATAAGAAAAATAACACACACATAAACATATATA [CACACA_site8899] | 7.76 ± 0.55
6 | ATTCATATGAAACACACACACACACCCATAAAAAAA [CACACA_site3246] | 8.13 ± 0.23
7 | TTTTTTTTTTTTTACACACACAAAATATTATAGGTA [CACACA_site7209] | 8.18 ± 0.66
8 | ATTTTTTACATACTCAAATGTTTTAATTTTTTATAT [CACACA_negctrl_site1213] | 7.82 ± 0.43
9 | TCTTTTCAATTTTATATGATCTTAATATTTTATGAA [GTGCAC_negctrl_site294] | 7.46 ± 0.58
10 | ATTTTGTTATTATATATATATATATATATATATATA [XGTACX_negctrl_site590] | 9.29 ± 0.49
11 | AAATGTGAACTATAATAATTTCAACGTCTGATATAA [TGCATGCA_negctrl_site440] | 7.51 ± 0.31
12 | AAATTTATAAAGAACACACACATATATATATATATA [CACACA_site48] | 9.42 ± 0.18
13 | CAAAACCTAATATGTACACACATATACATCACACTT [CACACA_site7480] | 8.02 ± 0.3
14 | TTTCTTTCGAATGCTTCACACATTACTCTTAAATAG [CACACA_site5265] | 7.88 ± 0.64
15 | ATATATATATATATAGTGCACATTTATATAATTATT | 11.43 ± 0.092
16 | ATTTTAAATTAAATTACACACTACGAATAATATATT [CACACA_site4016] | 7.64 ± 0.5
17 | ATATTTCTGTCAAGCACACATAATATTAATATATGT [CACACA_site318] | 8.03 ± 0.53
18 | ACATATAAAATATTCACACACAAGTTATAGTTCTCG [CACACA_site3626] | 7.61 ± 0.71
19 | AATAAATTATATATCACACATATATATTTATATTTA [CACACA_site5964] | 7.41 ± 0.45
20 | ACAAATAAGTTTTATACACACATATAAGTAAATACA [CACACA_site4157] | 7.69 ± 0.4
21 | GAGAGGAACATTATATGTACATATTAATTCTAAAAT [XGTACX_site5433] | 7.75 ± 0.31
22 | ACAATATTTTTTTATAAACACACATATATATAAATA [CACACA_site9175] | 7.91 ± 0.39

Row | Sequence | gcPBM binding intensity (ln)
23 | TATAGTGATATATACACACACTTGTCTTGTAAAAAT [CACACA_site6594] | 8.05 ± 0.35
24 | TGTATAAAAATTTATACACACATTTTATATATTTCA [CACACA_site1015] | 7.62 ± 0.39
25 | TAATCCATAAGAAGCACACACATATATATATATTTT [CACACA_site1399] | 7.84 ± 0.42
26 | TATTAATTATTATGACATACATATCAGTTATTAAAA [CACACA_negctrl_site600] | 7.53 ± 0.31
27 | TAATGGAGAAAAAAAAAACACACGGTACATTCAAAG [CACACA_site3117] | 7.83 ± 0.84
28 | AAGGGAAAATAATAAAAGAAAAAGAAAAAAAAAAAA [CACACA_negctrl_site1518] | 7.97 ± 1
29 | TATATATATATATATTGTACTTTATATGTTCTTATA [XGTACX_site7545] | 9.46 ± 0.45
30 | AAATATTACATTTGTTAAATAATATGTTATACATAA [XGTACX_negctrl_site484] | 7.32 ± 0.54
31 | TTTTATAAAGGAAAAGCATGCAGACTAAAAGATCAT [TGCATGCA_site150] | 8.93 ± 0.12
32 | TTATAATCTTTTGGTTCTATAGAATATCAAAAAATA [CACACA_negctrl_site1149] | 7.43 ± 0.47
33 | TTTTTAAAAAAATTGATTCTTTTTCTTTTTTTTCTT [XGTACX_negctrl_site127] | 7.07 ± 0.8
34 | TTTTTTGCTTGGGTGAGAAAAAATAAAATAAAGGAA [TGCATGCA_negctrl_site139] | 8.12 ± 0.32
35 | TATTATTGTCATTTTTTTTTTTTTTTTTTCTATTTC [XGTACX_negctrl_site114] | 7.43 ± 0.38
36 | AAAAAATAAAAGGAAAAAAAAAAAAAAAAAAAAAAT [CACACA_negctrl_site635] | 7.51 ± 0.57
37 | ATTTATACAAAGCTTCGTACATAATGTATTCTTTTT [XGTACX_site2166] | 7.57 ± 0.64
38 | TTTTAATTGTTTATTTGTACATATGTTTAATTATAT [XGTACX_site571] | 7.79 ± 0.49
39 | TTATTAAAAATGTATTGTACAAATTTATTAGTAAAT [XGTACX_site4799] | 7.66 ± 0.31
40 | TTTATATTTTAAAAAATAATATTATGTATTTTTAAA [TGCATGCA_negctrl_site507] | 7.21 ± 0.22
41 | GTACTTATTAAATGTGCATGTTGATATATAAATGTA [TGCATGCA_site902] | 8.23 ± 0.57
42 | TTTAATATATATATGTGTACATATAAATTATATATA [XGTACX_site8511] | 7.695 ± 0.035
43 | ATATACATAAAAATATGTACATATAAAATATATACA [XGTACX_site2394] | 7.76 ± 0.12
44 | ATATAATAAACGTGTACACAATTAAATTATTATATA [CACACA_site5017] | 8.59 ± 0.13

Row | Sequence | gcPBM binding intensity (ln)
45 | TAGACTCCCAGACACACACACACACCCATATAATAT [CACACA_site593] | 7.94 ± 0.35
46 | TATTATTATTGTTGATGTACATTTAATATAATATAT [XGTACX_site4482] | 7.7 ± 0.38
47 | TTTTTTTTTTTTGGTGCATGCACATTTTGTTTTTTT [TGCATGCA_site570] | 9.85 ± 0.014
48 | TGAATAAAAAAACCTAGTACTTAAATAAGTATATTT [XGTACX_site7690] | 7.4 ± 0.61
49 | TATATATTTATATTTACACACAGTTACTATGTAGAT [CACACA_site3292] | 7.66 ± 0.57
50 | ATTAAATGATCAAGGTGTACATTAACAAGAACTATA [XGTACX_site7022] | 8.06 ± 0.31
51 | TAAAAAAAATAGAAACGTACATAAAAAATAAATAAT [XGTACX_site5796] | 8.05 ± 0.59
52 | TATATATATACATACGTACACACAAATATTAAAATA [CACACA_site1950] | 8.77 ± 0.28
53 | TATATTTATATATGTTGTACTCTCCAATAATATTCC [XGTACX_site4438] | 7.67 ± 0.48
54 | TCATATAAAACATGCACACATATGTACTCTTATAAA [CACACA_site3748] | 8.57 ± 0.42
55 | TTTATTAATGGACACACACACACACCCAAAATAAAA [CACACA_site4294] | 8.28 ± 0.26
56 | TTGTATCTTCATTTTATCAGAAAAAAAAAAAAAAAT [CACACA_negctrl_site775] | 7.55 ± 0.33
57 | ATATATATATATAGGGGTACTTAAATTTTACTAACC [XGTACX_site1832] | 9.46 ± 0.23
58 | ATTTTATTTATATACACACACATATATATATTATAT [CACACA_site822] | 8.01 ± 0.59
59 | AATAAATAAATAAATTAATATATATATATATATAGA [CACACA_negctrl_site1661] | 7.46 ± 0.49
60 | AAAGGGTTACAAGAGGAACACACAAAAAAATAAATA [CACACA_site8406] | 7.93 ± 0.48
61 | TTTTGCGAAAAAAGGTGTACTGTAAATATATTGAGG [XGTACX_site8941] | 8.35 ± 0.35
62 | AGCACCCACCAACACACACACACACCCACCCACCGA [CACACA_site368] | 8.18 ± 0.13
63 | TTTTTTTTGATTTGTTTGCACTTATTTCCACAATAA | 10.1 ± 0.11
64 | TTTTTTTTTAATTACATAAAATAAAAATATTTCTAT [CACACA_negctrl_site584] | 7.47 ± 0.67
65 | TTAATATGTTTAACCATTTTACATAAATTGATTTGT [CACACA_negctrl_site1100] | 7.53 ± 0.42
66 | TACGTAAATTTTAATACACACTATAGGATATTCTGC [CACACA_site5418] | 7.65 ± 0.55

Row | Sequence | gcPBM binding intensity (ln)
67 | AAATAAATAAATATACGTACATATATATAATATATA [XGTACX_site5124] | 7.78 ± 0.13
68 | TAATAATAATACCAGCGTACATTTTTCTTTCCTACG [XGTACX_site4056] | 7.78 ± 0.71
69 | TATTTTTTCTTAAACACACACATATATATATATAAT [CACACA_site5567] | 7.88 ± 0.56
70 | TCTGTGTTTTTGGGTACACACAAATAGCTTGTATAT [CACACA_site4002] | 8.08 ± 0.21
71 | TGAAAATTAATAAAAAGTACATAGTCAGATTTGTGA [XGTACX_site2450] | 7.75 ± 0.6
72 | TTCCTTAATCAATATTGTACTTTTTATAAATTTAGT [XGTACX_site3678] | 8.03 ± 0.42
73 | TCTCCTTGTTCCTTTTTTTTAAAAAAAAACATTAAA [CACACA_negctrl_site679] | 8.32 ± 0.49
74 | ATAAATCCATGGGTAGTGCGCATTTTTTTTTTTTTT [GTGCAC_site9732] | 9.09 ± 0.41
75 | TTAGTGTATTAATTCTCACACACTAAGAAAAAAAAA [CACACA_site3878] | 8.57 ± 0.057
76 | ATAAAATGTATATGAATGCACTTGAAGTTTTTTTTT | 9.285 ± 0.035
77 | TATATGTGACATGAATGTACCCAAATTATATAAGAA [XGTACX_site3937] | 7.92 ± 0.33
78 | ATTTAATATATTTATTGTACATATAAAATAAAAGAA [XGTACX_site2413] | 8.02 ± 0.39
79 | TATTCTTACACGTTTGCACACTAAAATATATATATA [CACACA_site435] | 9.1 ± 0.27
80 | CATAGGAACATAAGTTGTACGCTATACATACAACAT [XGTACX_site1054] | 7.7 ± 0.35
81 | ACATGGTGATAATACTGTACAAAAATAAATAAATAC [XGTACX_site897] | 8.06 ± 0.72
82 | TTGTTTGGTTATAATTGTACGCATGTAATTACATAT [XGTACX_site4972] | 8.15 ± 0.67
83 | TTATTTTTCTAAAAAGCATGCAAATAAAGATATGAA [TGCATGCA_site1032] | 8.05 ± 0.47
84 | ACATTCAATAAACGTCGTACACTTTCCTTTTTATGA [XGTACX_site3274] | 8.17 ± 0.68
85 | AAAAAAACGATCGATCGTACTTATATTTACACATTC [XGTACX_site2883] | 7.54 ± 0.61
86 | ATATATATTTTATTATGTACTTACTTCTTTTCTTAA [XGTACX_site6163] | 7.86 ± 0.51
87 | TTTTATAGTCTTATGGGTACAAAATATTAACCCACG [XGTACX_site1131] | 8.23 ± 0.24
88 | TATATATATTTATACACACACATATATTTATATATT [CACACA_site484] | 7.97 ± 0.45
